# Measured values reported in PMC4336329 (PLoS ONE, 2015).
# Out of some 310,000 compounds screened, about 14,000 (4.5%) showed an effect of 50% or more. Effects have a minus sign here. The list shows a part of the results.
# Molecular target: human ether-à-go-go-related gene (hERG) potassium channel (human, UniProt Q12809)
# Test: primary screen, population patch clamp on CHO cells stably expressing hERG
# 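Note: peak tail current of the secondary pulse compared with the same well before compound.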
# Chain of human ether-à-go-go-related gene (hERG) potassium channel (Q12809 whole entry, looked up): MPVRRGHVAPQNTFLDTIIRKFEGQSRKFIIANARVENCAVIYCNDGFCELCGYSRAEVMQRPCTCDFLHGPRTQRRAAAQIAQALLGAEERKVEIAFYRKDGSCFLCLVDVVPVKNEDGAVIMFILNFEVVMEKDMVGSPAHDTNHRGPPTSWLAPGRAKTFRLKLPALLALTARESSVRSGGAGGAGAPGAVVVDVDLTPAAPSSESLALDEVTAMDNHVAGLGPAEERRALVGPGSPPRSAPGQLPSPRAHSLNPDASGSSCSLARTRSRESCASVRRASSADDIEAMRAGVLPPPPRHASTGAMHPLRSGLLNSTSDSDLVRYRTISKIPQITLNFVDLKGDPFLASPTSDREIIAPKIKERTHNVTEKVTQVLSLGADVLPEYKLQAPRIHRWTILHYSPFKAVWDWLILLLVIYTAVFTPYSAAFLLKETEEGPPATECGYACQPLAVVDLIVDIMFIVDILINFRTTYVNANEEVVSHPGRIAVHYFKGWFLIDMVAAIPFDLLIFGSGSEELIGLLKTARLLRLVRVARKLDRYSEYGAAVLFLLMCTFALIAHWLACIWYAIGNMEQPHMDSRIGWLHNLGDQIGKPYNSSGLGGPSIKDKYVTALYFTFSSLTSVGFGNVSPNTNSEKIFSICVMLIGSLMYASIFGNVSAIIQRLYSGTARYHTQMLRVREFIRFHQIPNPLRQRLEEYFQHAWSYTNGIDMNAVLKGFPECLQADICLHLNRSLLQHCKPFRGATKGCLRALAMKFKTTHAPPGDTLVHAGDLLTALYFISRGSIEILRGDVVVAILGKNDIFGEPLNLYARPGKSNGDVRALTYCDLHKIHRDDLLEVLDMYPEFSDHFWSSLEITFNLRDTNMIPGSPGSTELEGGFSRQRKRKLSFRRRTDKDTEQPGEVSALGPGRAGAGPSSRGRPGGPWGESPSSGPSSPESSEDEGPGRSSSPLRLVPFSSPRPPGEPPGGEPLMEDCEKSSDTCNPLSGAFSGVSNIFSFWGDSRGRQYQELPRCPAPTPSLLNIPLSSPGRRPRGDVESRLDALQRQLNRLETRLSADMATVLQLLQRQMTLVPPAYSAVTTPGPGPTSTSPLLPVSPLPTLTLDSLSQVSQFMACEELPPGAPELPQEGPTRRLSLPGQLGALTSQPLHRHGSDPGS
row,Structure (SMILES),"hERG current change (%, negative = inhibition) at 10uM [%]"
1,N/C(=N\OC(=O)CCC1CCCC1)c1cccc([N+](=O)[O-])c1,-70.4
2,COc1ccccc1C(=O)Nc1nnc(SCC(=O)NCC2CCCO2)s1 (centres unmarked),12.9
3,N#Cc1ccc(CSc2nnc(-c3ccccn3)n2-c2ccccc2)cc1,-42.1
4,O=C(NCCCn1ccnc1)c1cn(Cc2ccc(F)cc2)nn1,-9.7
5,Cc1cccc(N2CCN(C(=O)c3cn(C)c(=O)c4c3c3ccccc3n4C)CC2)c1C,5.98
6,Cc1ccc(Oc2ccc(OCC(=O)NC(CC(C)C)C(=O)O)cc2)cc1 (centres unmarked),6.77
7,COc1ccc(C(=O)NC2CCCCC2)cc1OC1CCN(C(C)C)CC1,-69.7
8,CCc1ccccc1N1CC23C=CC(O2)C(C(=O)OCC(C)C)C3C1=O (centres unmarked),-12.9
9,COc1ccc(C)cc1NC(=O)C1CC(=O)N(CCc2ccccc2)C1 (centres unmarked),13
10,N#Cc1c(/N=C/c2cccnc2)sc2c1CCCC2,-15
11,O=C(Nc1cccc2ncccc12)c1cccc(Br)c1,-7.12
12,Cc1ccc2occ(C3NC(C(=O)O)CS3)c(=O)c2c1 (centres unmarked),13.3
13,O=C(Nc1ncc([N+](=O)[O-])s1)C1CCN(S(=O)(=O)c2cnc[nH]2)CC1,14.4
14,CC(C)(Cc1ccccc1)NC(=O)C(=O)c1cn(CC(=O)N2CCOCC2)c2ccccc12,-7
15,CSc1ccc(/C=C2\CCn3c2nc2cc(C(=O)O)ccc2c3=O)cc1,20.4
16,[O-]/[N+](=C\c1ccccc1)c1ccc(Br)cc1,-0.595
17,Cc1ccc(C(=O)Nc2cccc(C(F)(F)F)c2)cc1Nc1cnccn1,-38.4
18,COc1cc(-c2nc3ccccn3c2/N=C/c2ccc(F)cc2)ccc1O,1.09
19,CCOC(=O)c1ccc(CNC(=O)c2cc(C(C)(C)C)oc2C)o1,-10.2
20,O=C(NC1CC1)C1=C[C@@H](c2ccc3c(c2)OCO3)C[C@@H](OCc2ccc(CO)cc2)O1,-3.36
21,COCc1cc(C)n(CC(=O)Nc2ccc(N3CCOCC3)c(Cl)c2)c(=O)c1C#N,-4.71

row,Structure (SMILES),"hERG current change (%, negative = inhibition) at 10uM [%]"
1,CCn1c(SC(C)C(=O)NC2CCCC2)nc2cc(S(N)(=O)=O)ccc21 (centres unmarked),2.78
2,CC1=C(C(N)=O)C(c2ccc(Cl)c(Cl)c2)n2ncnc2N1 (centres unmarked),18.8
3,O=C(Cn1c(=O)c2c(ncn2Cc2ccccc2)n(Cc2ccccc2)c1=O)N1CCCC1,-33.4
4,Nc1nc(Nc2ccc(Cl)cc2)nc(NCc2ccco2)c1[N+](=O)[O-],-19.3
5,CCOc1ccc(CN(C)C(=O)Cc2c[nH]c3ccccc23)cc1,12
6,Cc1cc(Nc2ccc(Cl)cc2)n(-c2ccccc2)n1,2.76
7,O=C(c1ccccc1[N+](=O)[O-])N(CCc1ccccc1)Cc1ccccc1,3.89
8,O=C(COC(=O)c1ccc([N+](=O)[O-])cc1Cl)NCc1ccco1,-3.16
9,COc1ccc(C(CC(=O)O)NC(=O)COc2ccccc2)cc1OC (centres unmarked),16.7
10,c1ccc2oc(NC3=NCN(CC4CCCO4)CN3)nc2c1 (centres unmarked),0.528
11,C=CCc1cc(C=O)cc(OC)c1OCc1ccc(C(=O)O)cc1,4.12
12,Cn1cccc1C(=O)c1cccc([N+](=O)[O-])c1,-52.9
13,COc1ccc(CNC(=O)CN(c2ccc(OC)c(Cl)c2)S(=O)(=O)c2ccc(C)cc2)cc1,10.4
14,CCOC(=O)N1CCN(Cc2nc3cc(NC(=O)CC(C)C)ccc3n2C)CC1,9.03
15,CC(C)c1ccc(OCC(=O)NC2CCCC2)cc1,10.6
16,O=C(CSc1n[nH]c(-c2ccncc2)n1)Nc1ccccc1C(F)(F)F,13.4
17,Cc1ncoc1C(=O)NCc1ccccc1Cl,-1.99
18,Cc1sc2nc(CN3CCOCC3)nc(NS(=O)(=O)c3cc(Cl)ccc3Cl)c2c1C,-9.13
19,CCn1c(COc2ccc(C(C)C)cc2)nnc1SCC(=O)Nc1nccs1,-7.75
20,Cc1ccc2c(C)c(C(=O)N(Cc3ccccc3)C3CCS(=O)(=O)C3)oc2c1 (centres unmarked),5.01
21,S=C(NCc1ccco1)Nc1ccc(Cl)cn1,-4.57

row,Structure (SMILES),"hERG current change (%, negative = inhibition) at 10uM [%]"
1,Cc1nnc(SCC(=O)Nc2cc(S(=O)(=O)N3CCCC3)ccc2Cl)n1C1CC1,-26.6
2,CC(C)(C)c1ccc(C(=O)NC2CCN(Cc3ccccc3)CC2)cc1,-65.3
3,Cc1ccccc1-c1nc(CN2CCC(C(=O)NCCN3CCOCC3)CC2)c(C)o1,-11.4
4,Cc1cccc(-n2c(CNC(=O)c3ccc(S(=O)(=O)N(C)C)cc3)nnc2SCC(=O)Nc2ccc(F)cc2)c1,-17.4
5,Cc1ccc(N(C(C)C(=O)N2CCOCC2)S(C)(=O)=O)cc1C (centres unmarked),-2.09
6,COc1cccc(-c2nc(CS(=O)(=O)CC(=O)Nc3c(C)cccc3C)c(C)o2)c1,13.8
7,CCN1C(=O)[C@H]2[C@@H](c3ccc(-c4ccc(OC)cc4)cc3)N[C@@](Cc3ccccc3)(C(=O)OC)[C@H]2C1=O.O=C(O)C(F)(F)F,3.09
8,O=C(NCCC1=CCCCC1)C1CCN(S(=O)(=O)c2cccc(C(F)(F)F)c2)CC1,-11.3
9,O=C(CSc1ccc2c(c1)OCCO2)NCCc1ccc(Cl)cc1Cl,-8.94
10,Cc1cc(NC(=O)CCC(=O)N(CC(=O)NC2CCCC2)Cc2cccs2)no1,16.1
11,Cc1ccc2c(c1)-c1c(cnn1CC(=O)Nc1ccccc1N1CCN(C)CC1)CO2,-44.7
12,CCC(NS(=O)(=O)c1ccc(C)cc1)C(=O)N1CCC2(O)CCCCC2C1 (centres unmarked),9.7
13,COc1ccccc1OCCOc1ccccc1/C=N/n1cnnc1,6.14
14,O=C(N/C(=C/c1ccc(Br)cc1)C(=O)N1CCOCC1)c1ccco1,-24.1
15,Cc1cc(C)n2nc(C(=O)N(C)c3c(N)n(Cc4ccccc4)c(=O)[nH]c3=O)nc2n1,13.4
16,NC(=O)/C(=C/c1ccco1)C(N)=S,25.2
17,COC(=O)c1c(NC(=O)c2ccc(OC(C)C)cc2)sc2c1CC(C)(C)NC2(C)C,-4.04
18,Cc1ccccc1N/C(=N/S(=O)(=O)c1ccccc1)c1ccc(F)cc1,-5.7
19,CCN1CCN(c2nc3sc4c(c3c3ncnn23)CC(C)CC4)CC1 (centres unmarked),-31.5
20,CCOc1ccc(CCNS(=O)(=O)c2cn(C)cn2)cc1OCC,20.6
21,CC1=C/C(=N\N=C2\NC(=O)C(CC(=O)Nc3ccccc3F)S2)CC(C)(C)C1 (centres unmarked),-5.15

row,Structure (SMILES),"hERG current change (%, negative = inhibition) at 10uM [%]"
1,CC(=O)N1c2ccc(S(=O)(=O)N3CCC(C(=O)N4CCN(c5cccc(C(F)(F)F)c5)CC4)CC3)cc2CC1C (centres unmarked),-5.21
2,Cc1sc(NC(=O)CSc2nnc(N)s2)c(C#N)c1C,23.2
3,COc1ccc(C2CCCN2C(=O)Nc2ccc(Cl)cc2)cc1OC (centres unmarked),-46.7
4,COc1cc([N+](=O)[O-])ccc1NC(=O)Cn1ccsc1=N.O=C(O)C(=O)O,-23.8
5,CC1CCN(C(=O)COc2ccc(S(=O)(=O)N3CCCC3)cc2)CC1,17.1
6,CCN(CC)C(=O)c1cc2cc(Br)ccc2oc1=O,-0.273
7,OCC[C@H]1C[C@H](O)[C@@H](O)[C@]2(CCc3ccccc3CO2)O1,3.56
8,CCCCSc1nc(SCC(=O)NCc2ccco2)c2c3c(sc2n1)COC(C)(CC)C3 (centres unmarked),0.126
9,Cc1cc(NC(=O)c2ccc(F)cc2)n(CCOC(=O)c2ccc(F)cc2)n1,-5.84
10,CCOc1ccc(N(CC)C(=O)c2nn(-c3ccc(OC)cc3)c(=O)c3c2c2ccccc2n3C)cc1,15.6
11,O=C(Oc1ccccc1/C=C\C(=O)c1cc2ccccc2o1)c1cccc(F)c1,7.03
12,Cc1cc2c(cc1S(=O)(=O)CCC(=O)N(C)C1CCCCC1)OCC(=O)N2,-32
13,CC(C)CC(=O)N1CCN(Cc2ccc3c(c2)OCO3)CC1,0.479
14,CCCN1CCC(NC(=O)CC2C(=O)NCCN2Cc2cccc(OC)c2)CC1 (centres unmarked),3.29
15,CC(=O)Nc1ccc(NC(=O)CS(=O)(=O)c2cn(CC(=O)N3CCCCC3)c3ccccc23)cc1,3.67
16,COCCNc1ncnc2nc[nH]c12,9.48
17,CCN1C(=O)[C@H]2[C@@H](c3ccc(-c4ccccc4)cc3)N3CCCC[C@@]3(C(=O)OC)[C@H]2C1=O.O=C(O)C(F)(F)F,0.377
18,CCN(C(=O)CCc1nc(-c2ccc(OC)cc2)no1)c1cc(OC)ccc1OC,-5.77
19,CCCCC(CC)CNCc1cccn1CCN1CCOCC1.O=C(O)C(=O)O (centres unmarked),5.04
20,O=C(COc1ccccc1Cl)Nc1ccc2c(c1)C(=O)NC2=O,7.52
